From paper PMC4336329 (PLoS ONE, 2015)
Screen size: about 310,000 compounds; about 14,000 (4.5%) showed an effect of 50% or more. Effects have a minus sign here. This is one part of the list.

biological target: human ether-à-go-go-related gene (hERG) potassium channel (human, UniProt Q12809); test: primary screen, population patch clamp on CHO cells stably expressing hERG
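Also: peak tail current of the secondary pulse compared with the same well before compound.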

Sequence of human ether-à-go-go-related gene (hERG) potassium channel (Q12809 whole entry, looked up): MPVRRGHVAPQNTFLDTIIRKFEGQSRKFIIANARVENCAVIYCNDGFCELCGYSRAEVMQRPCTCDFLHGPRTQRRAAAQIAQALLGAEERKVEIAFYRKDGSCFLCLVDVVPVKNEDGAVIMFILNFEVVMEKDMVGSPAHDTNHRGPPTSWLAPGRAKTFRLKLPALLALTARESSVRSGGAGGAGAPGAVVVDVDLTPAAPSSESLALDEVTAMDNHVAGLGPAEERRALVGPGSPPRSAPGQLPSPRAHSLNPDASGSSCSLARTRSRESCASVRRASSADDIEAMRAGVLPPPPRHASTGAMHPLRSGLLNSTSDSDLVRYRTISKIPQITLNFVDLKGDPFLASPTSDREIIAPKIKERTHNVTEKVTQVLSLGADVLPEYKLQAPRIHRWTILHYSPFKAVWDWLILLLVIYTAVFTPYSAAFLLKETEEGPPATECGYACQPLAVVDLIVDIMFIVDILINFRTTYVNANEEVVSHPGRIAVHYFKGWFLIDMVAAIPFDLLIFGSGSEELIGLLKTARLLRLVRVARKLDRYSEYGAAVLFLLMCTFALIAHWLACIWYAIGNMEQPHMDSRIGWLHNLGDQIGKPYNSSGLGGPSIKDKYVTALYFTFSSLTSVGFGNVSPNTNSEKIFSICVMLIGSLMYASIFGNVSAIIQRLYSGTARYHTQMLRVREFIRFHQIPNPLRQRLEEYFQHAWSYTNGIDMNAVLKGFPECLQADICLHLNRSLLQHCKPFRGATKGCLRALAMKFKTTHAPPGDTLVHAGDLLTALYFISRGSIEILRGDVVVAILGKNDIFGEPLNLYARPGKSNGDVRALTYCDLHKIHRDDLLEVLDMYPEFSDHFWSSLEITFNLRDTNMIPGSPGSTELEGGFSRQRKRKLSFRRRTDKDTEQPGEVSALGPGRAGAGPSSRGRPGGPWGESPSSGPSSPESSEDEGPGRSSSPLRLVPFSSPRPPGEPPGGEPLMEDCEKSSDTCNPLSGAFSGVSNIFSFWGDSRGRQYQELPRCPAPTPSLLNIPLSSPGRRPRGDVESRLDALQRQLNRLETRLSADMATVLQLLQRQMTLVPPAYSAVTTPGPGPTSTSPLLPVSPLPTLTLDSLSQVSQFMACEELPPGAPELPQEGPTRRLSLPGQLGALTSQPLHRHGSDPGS

SMILES	hERG current change (%, negative = inhibition) at 10uM [%]
CC(OC(=O)C1=COCCO1)C(=O)NC(C)c1ccc(Cl)cc1Cl (stereo not drawn)	-3.25
O=C(COC(=O)c1ccc2ccccc2c1)NCCCc1ccccc1	17.7
CCN1CCN(c2nnc(-c3ccc(F)cc3)c3ccccc23)CC1	-48.4
O=[n+]1c2c(n([O-])c3cc(Cl)ccc31)CCCC2	-0.318
COc1cc(Br)c(C(=O)c2nccc3cc(OC)c(OC)cc23)cc1OC	-14.5
CN(C)C(=O)c1ccc(-c2cc(C(F)(F)F)n(C)n2)s1	5.87
CCn1c(=O)cc(OCC(=O)N2CCCC2)c2ccccc21	7.8
COc1ccc(NS(=O)(=O)c2ccc(NC(=O)c3ccc(N(C)S(C)(=O)=O)cc3)cc2)cc1	11.7
CC(C)CNC(=O)CN(c1ccccc1)S(=O)(=O)c1ccccc1[N+](=O)[O-]	2.38
COc1ccc(C2(C)NC(=O)N(CC(=O)Nc3ccc(S(=O)(=O)N4CCCC4)cc3)C2=O)cc1 (stereo not drawn)	-2.91
O=C(O)c1ccc([N+](=O)[O-])c(CS(=O)(=O)c2ccc(Cl)cc2)c1	6.82
COc1ccc(-c2c(C)n([O-])c3c([n+]2=O)CCCC3)c(OC)c1	6.26
O=C(O)c1ccc(Cl)c(S(=O)(=O)NCC2CCCO2)c1 (stereo not drawn)	6.15
COc1ccc(NC(=S)N2CCN(C(=O)C3CCCO3)CC2)c(OC)c1 (stereo not drawn)	14.1
O=C1OCCC1Sc1nnc(-c2ccc3c(c2)OCO3)n1-c1ccccc1 (stereo not drawn)	-3.33
CCCCCn1nc(-c2ccccc2)c2nc3ccccc3nc21	8.24
COc1cc(/C=N/NC(=O)C(=O)/C=C2\NC3(CCCC3)Cc3ccccc32)ccc1O	15.9
COc1ccccc1N=C1SCC(=O)N1c1ccccc1OC	17.7
CC(CCc1ccccc1)NC(=O)COC(=O)c1ccc([N+](=O)[O-])cc1 (stereo not drawn)	-22.1
CCC(C)NC(=O)CSc1nc2ccccc2c(=O)n1CCCN1CCCCC1 (stereo not drawn)	-13.8
Nc1nc(CSc2ccc(Cl)cc2)nc(N2CCCCC2)n1	-6.41
CCN(C(=O)CCCCC(=O)N(CC)c1ccccc1)c1ccccc1	2.5

SMILES	hERG current change (%, negative = inhibition) at 10uM [%]
COc1ccc(OCCC(=O)NCC23CC4CC(CC(C4)C2)C3)cc1	-2.52
CC(C)Cc1ccc(S(=O)(=O)N2CCN(C(=O)c3ccco3)CC2)cc1	-11.1
Cc1ccc(S(=O)(=O)N(C)C)cc1NC(=O)Nc1ccccc1	5.83
COCCCNC(=O)Cn1cc(C(=O)c2cccs2)c2ccccc21	-12
CCOC(=O)c1c(NC(=O)/C=C/C(=O)O)sc(C)c1-c1ccc(F)cc1	23.5
COc1ccc(CCC(=O)N2CCN(S(=O)(=O)c3ccc(OC(F)(F)F)cc3)CC2)cc1	-39.9
CCNC(=O)NC(=O)C(C)OC(=O)c1ccc(-n2nc(SC)sc2=S)cc1 (stereo not drawn)	-10.8
CCOC(=O)CSc1nnc(CNc2ccccc2Cl)n1-c1ccccc1	-7.91
O=C(NNc1ccc(Cl)cc1)c1c(F)cccc1Cl	13.7
O=C(CSc1nnc(-c2cccnc2)n1Cc1ccco1)Nc1nc(-c2ccc(F)cc2)cs1	-70.6
O=C1C=C(c2ccc3[nH]ccc3c2)C[C@@H](c2ccc(F)cc2)C1	2.56
CC(=O)Nc1nnc(S(=O)(=O)N2CCN(c3ccc([N+](=O)[O-])cc3Cl)CC2)s1	-4.29
CC(=O)Nc1ccc(NC(=O)c2ccc(CN3CCc4ccccc4C3)cc2)cc1	13.6
CCOc1ccc(C(=O)NC(=S)Nc2ccc(NC(=O)c3ccco3)c(C)c2)cc1[N+](=O)[O-]	23.1
CN1CCN(/C=N/c2sc3c(c2C#N)CCCCC3)CC1	-12.1
Cc1ccc(C(=O)NC2CCS(=O)(=O)C2)cc1S(=O)(=O)N1CCCC1 (stereo not drawn)	-14.2
Cc1nc2ccccc2c(=O)n1NC(=O)c1c(F)cccc1F	-2.18
CCN(c1ccccc1)S(=O)(=O)c1ccc(N)c(OC)c1	-5.62
CCC(Oc1ccc(F)cc1)C(=O)N1CCCCCCC1 (stereo not drawn)	5.11
CCOC(=O)c1oc2c(c1C)/C(=N/O)CCC2	13.4
Nc1nonc1-n1nnc(C(=O)N/N=C/c2ccccc2Cl)c1COc1ccc(F)cc1	2.38
COc1ccc(CCNC(=S)N2CCC(C(=O)c3ccc(F)cc3)CC2)cc1OC	-19.2

SMILES	hERG current change (%, negative = inhibition) at 10uM [%]
COc1ccc(Cn2c(O)c(C=Nc3ccccc3)c3ccccc3c2=O)cc1	11.4
Oc1c(Br)cc(Br)cc1C=Nc1ccc2[nH]ncc2c1	2.67
O=C(CN(Cc1ccco1)C(=O)CNS(=O)(=O)c1ccc(Cl)cc1)NCC1CCCO1 (stereo not drawn)	-6.32
CC1CN(CCCCOc2ccc(Cl)c3ccccc23)CC(C)O1.O=C(O)C(=O)O (stereo not drawn)	21.3
Cc1cc(C)n(CCn2nc(C)cc2C)n1	4.43
CCCOc1ccc(Cn2c(=O)oc3ccc(C)cc32)cc1	-3.82
CCOC(=O)C1CCN(C(=O)CCNC(=O)Cn2ccc3ccccc3c2=O)CC1	-1.95
O=C(c1ccc2oc(Cc3ccc(Cl)cc3)nc2c1)N1CC[C@H](O)C1	4.21
Cc1sc2ncnc(OCC(=O)N3CCN(S(=O)(=O)c4ccccc4)CC3)c2c1C	-2.31
Cc1c(Cl)cccc1NC(=O)CC(Cc1ccccc1)C(=O)O (stereo not drawn)	22.6
NC(=O)C1c2ccccc2Oc2ccccc21	13.7
Cc1nc2scc(-c3ccccc3)c2c(=O)n1N	-1.43
Cc1ccccc1N1CCN(C(=O)c2ccccc2NC(=O)/C=C\C(=O)O)CC1	14.3
C#CCN(CC=C)C(=O)c1ccc2nc(C3CCCCC3)oc2c1	-9.98
O=C(NNC(=S)Nc1ccc(Br)cc1)c1ccccc1Br	18.5
Cc1cc(=O)cc(C)n1-c1ccccc1Br	15.8
CC(C)Cn1c(N2CCN(C(=O)c3cccs3)CC2)nc2ccccc21	-73.6
COc1cccc(CNC(=O)COC(=O)CN(C)S(=O)(=O)c2ccc(NC(C)=O)cc2)c1	5.95
Cc1cc(C)c2c(N)c(C(=O)N3CCc4ccccc4C3)sc2n1	-17.6
Cn1c(=O)c2cc(S(=O)(=O)NC(Cc3ccccc3)C(=O)NCC3CCCO3)ccc2n(C)c1=O (stereo not drawn)	23.7
Cc1nnc(SCC(=O)N2CCN(c3ccccc3)CC2)n1-c1ccccc1	-16.9
O=C1C=CN(C(=O)Oc2ccccc2)CC1	10.3

SMILES	hERG current change (%, negative = inhibition) at 10uM [%]
COCCn1c(=NC(=O)CSC(C)=O)sc2cc(F)ccc21	-23
O=C(CSc1nnc(CNC(=O)c2cccs2)o1)Nc1cccc(C(F)(F)F)c1	-35.1
CCC(=O)Nc1ccc(NC(=O)c2cc3ccccc3o2)c(OC)c1	-5.36
COc1ccc(/C=C/C(=O)C2CC2)cc1Cn1nc(C)c([N+](=O)[O-])c1C	-14.6
CCOC(=O)c1ccc2nc(NC(NC(C)=O)(C(=O)OC)C(F)(F)F)sc2c1 (stereo not drawn)	13.6
CC(C)c1ccc(N(C(=O)c2csnn2)C(C(=O)NC2CCCC2)c2ccncc2)cc1 (stereo not drawn)	-57.8
CCS(=O)(=O)c1nc(S(=O)(=O)c2ccc(C)cc2)c(N2CCN(CCO)CC2)s1	-5.69
Cc1ccc(O)c(NC(=O)Cc2ccc3ccccc3c2)c1	2.33
CC(=O)N1C(=O)NC(c2ccccc2)=C([N+](=O)[O-])C1c1ccccc1 (stereo not drawn)	-5.17
O=C(Nc1ccc2c(c1)OCO2)C1COc2ccccc2O1 (stereo not drawn)	13.5
CCOc1cc(C2/C(=C(/O)c3ccc(OC(C)C)cc3)C(=O)C(=O)N2CCCOC)ccc1O (stereo not drawn)	25
CS(=O)(=O)c1ccc(C(=O)Nc2ccccc2Cl)cc1	-25.1
CCc1ccc(CN(C)C(=O)c2ccc3c(=O)n4c(nc3c2)CCC4)cc1	-24.8
CCOC(=O)Cc1csc(NC(=O)CSc2nccn2C)n1	17.3
COc1ccc(C(=O)N2c3ccccc3CC2C)cc1OC (stereo not drawn)	0.669
COc1ccccc1CC(=O)NNS(=O)(=O)c1cccc([N+](=O)[O-])c1	8.88
CCn1c(C(C)NS(=O)(=O)c2ccc(Cl)cc2)n[nH]c1=S (stereo not drawn)	20.1
Cc1ccccc1-n1nc2c(c1NC(=O)c1cccc(F)c1)CS(=O)C2 (stereo not drawn)	9.26
C=CCn1c(C)nnc1SCC(=O)Nc1oc(C)c2c(C)n[nH]c(=O)c12	-1.95
Cc1ccc(C)c(NC(=S)N/N=C/C(C)c2ccccc2)c1 (stereo not drawn)	-10.8
Cc1nnc(-c2ccc(N3CCOCC3)c([N+](=O)[O-])c2)o1	11.6
